Laboratory results: publication PMC4336329 (PLoS ONE, 2015)
About 14,000 (4.5%) of roughly 310,000 compounds showed an effect of 50% or more. Effects have a minus sign here. The list shows a part of the results.

Target: human ether-à-go-go-related gene (hERG) potassium channel (human, UniProt Q12809)
Assay: primary screen, population patch clamp on CHO cells stably expressing hERG
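Further: peak tail current of the secondary pulse compared with the same well before compound.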

Chain of human ether-à-go-go-related gene (hERG) potassium channel (Q12809 whole entry, looked up): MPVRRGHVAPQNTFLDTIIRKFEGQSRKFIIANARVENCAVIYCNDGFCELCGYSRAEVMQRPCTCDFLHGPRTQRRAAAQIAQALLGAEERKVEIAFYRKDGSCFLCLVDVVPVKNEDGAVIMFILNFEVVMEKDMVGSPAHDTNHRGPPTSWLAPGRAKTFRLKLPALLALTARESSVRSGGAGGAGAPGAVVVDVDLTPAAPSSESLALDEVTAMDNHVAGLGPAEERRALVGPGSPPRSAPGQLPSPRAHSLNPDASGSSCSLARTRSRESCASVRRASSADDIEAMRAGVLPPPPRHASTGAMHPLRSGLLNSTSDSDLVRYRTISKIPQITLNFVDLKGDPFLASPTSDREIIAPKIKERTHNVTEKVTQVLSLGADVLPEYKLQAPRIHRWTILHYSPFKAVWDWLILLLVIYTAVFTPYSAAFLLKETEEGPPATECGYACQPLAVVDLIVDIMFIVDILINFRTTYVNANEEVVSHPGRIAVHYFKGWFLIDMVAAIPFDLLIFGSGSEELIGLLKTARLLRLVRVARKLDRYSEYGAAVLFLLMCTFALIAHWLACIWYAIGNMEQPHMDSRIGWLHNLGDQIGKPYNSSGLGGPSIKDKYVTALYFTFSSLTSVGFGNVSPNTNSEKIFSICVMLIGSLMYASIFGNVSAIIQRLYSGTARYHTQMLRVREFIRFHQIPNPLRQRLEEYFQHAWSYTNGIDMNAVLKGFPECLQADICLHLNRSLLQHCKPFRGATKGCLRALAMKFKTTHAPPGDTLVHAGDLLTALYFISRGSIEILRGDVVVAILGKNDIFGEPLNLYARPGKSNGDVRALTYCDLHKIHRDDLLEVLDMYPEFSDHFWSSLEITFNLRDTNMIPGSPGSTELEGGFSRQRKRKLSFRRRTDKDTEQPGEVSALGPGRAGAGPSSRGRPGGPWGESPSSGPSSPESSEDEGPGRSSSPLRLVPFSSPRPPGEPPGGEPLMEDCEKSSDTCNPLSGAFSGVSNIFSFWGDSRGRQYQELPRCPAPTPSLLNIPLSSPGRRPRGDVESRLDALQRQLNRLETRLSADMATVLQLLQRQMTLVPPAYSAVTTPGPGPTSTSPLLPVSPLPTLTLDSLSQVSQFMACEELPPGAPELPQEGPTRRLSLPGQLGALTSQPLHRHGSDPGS

Row | Compound | hERG current change (%, negative = inhibition) at 10uM [%]
1 | CCc1ccc(N(CC(=O)N2CCN(Cc3ccccc3)CC2)S(C)(=O)=O)cc1 | -10.5
2 | COc1ccc(C(=O)Nc2ccc(Nc3ccccc3)cc2)cc1OC | 23.5
3 | COC(=O)c1ccc(C(=O)OCc2nc3cc4ccccc4cc3[nH]2)cc1 | 2.62
4 | CCOc1ccc(NC(=O)CCC(=O)N2CCSc3ccccc32)cc1 | -16.3
5 | C=CCNC(=S)NC(=O)c1ccc(C)c(Br)c1 | 3.39
6 | Cc1cccc(Cn2nc(C)cc2NC(=O)CCCn2ccc([N+](=O)[O-])n2)c1 | -10.1
7 | COc1ccc(CCNC(=O)c2ccccc2Cl)cc1OC | 7.72
8 | COc1ccc(S(=O)(=O)N2CCCC2CNC(=O)c2cccc(OC)c2)cc1 (centres unmarked) | -31.1
9 | O=C1CCCC2=C1C(c1ccncc1)c1c(nc(SCc3ccccc3Cl)[nH]c1=O)N2 (centres unmarked) | 3.87
10 | CC1CCN(C(=O)COc2coc(CN3CCc4ccccc43)cc2=O)CC1 | -26.1
11 | COc1ccccc1OCCCC(=O)Nc1nccs1 | 7.81
12 | Cc1ccc2nc(/N=C(\N)NC(=O)N3c4ccccc4Sc4ccccc43)nc(C)c2c1 | 1.61
13 | C=CCN1c2ccccc2[C@]23C[C@@H](C(=O)OC)N(C(=O)c4cccs4)C2=NC(C(=O)OC)=C(C(=O)OC)[C@H]13 | -27.3
14 | Clc1ccc(CN2CCN(c3ccccc3)CC2)cn1 | 10.4
15 | Cc1cccc(-n2c(=S)[nH]c3ccccc3c2=O)n1 | 14.8
16 | CN(C)S(=O)(=O)c1ccc(NC=O)cc1 | 39.3
17 | COc1ccc(C(CC(=O)N2CCC3(CC2)OCCO3)NS(=O)(=O)c2ccc(OC)cc2)cc1 (centres unmarked) | 7.14
18 | Cc1ccc(C2/C(=C(/O)c3ccc(Br)cc3)C(=O)C(=O)N2Cc2ccco2)o1 (centres unmarked) | 24
19 | CCCCCCCC(=O)NNC(=O)c1c(O)c2ccccc2[nH]c1=O | 6.82
20 | CC(C)C[C@H](NC(=O)N1CCn2c1nc1ccccc12)C(=O)NCCc1ccccc1 | -21.2
21 | COc1cc2c(c(OC)c1OC)-c1ccc(NC(=O)c3ccccc3)c(=O)cc1[C@@H](NC(C)=O)CC2 | -13.4
22 | O=C(N=Nc1c(O)[nH]c2ccc(F)cc12)c1ccc(NS(=O)(=O)c2cccs2)cc1 | 13.4
23 | Cc1oc(-c2ccc3ccccc3c2)nc1CN(C)C(C)c1ccncn1 (centres unmarked) | -49.8

Row | Compound | hERG current change (%, negative = inhibition) at 10uM [%]
24 | Cc1ccc(-c2nc(CS(=O)CC(=O)NCCN3CCOCC3)c(C)o2)cc1 (centres unmarked) | 1.94
25 | Cc1c(C)n(CC(O)CN(CCO)CCO)c2ccccc12.Cl (centres unmarked) | 38.5
26 | CCN1C(=O)CC(c2ccccc2)CC1=O | 13
27 | Cc1ccc(S(=O)(=O)N2CCN(C(=O)c3c(-c4ccccc4)noc3C)CC2)cc1 | -4.97
28 | O=C(NN1C(=O)c2ccccc2NC1c1ccccn1)c1ccc([N+](=O)[O-])cc1 (centres unmarked) | -16.1
29 | Cc1ccc(-c2cc3c(nn2)-c2ccccc2C3=O)cc1 | 11.7
30 | CN(C)C(=S)Nc1ccc2c(c1)OCO2 | 18.7
31 | O=c1cc(O)nc[nH]1 | 17.3
32 | CCN(CC)CCN(C(=O)/C=C/c1cccs1)c1nc2ccc(Cl)cc2s1.Cl | 13.7
33 | Cc1cccc(C)c1CC(=O)N1CCOCC1 | 13.7
34 | CCc1ccccc1NC1c2ccccc2C(=O)N1c1cccnc1 (centres unmarked) | -8.11
35 | CC(C)C[C@H](NC(=O)c1nc[nH]c1C(=O)N[C@@H](CC(C)C)C(=O)OCc1ccccc1)C(=O)OCc1ccccc1 | 16.2
36 | Cc1[nH]n(-c2ccccc2)c(=O)c1C=Nc1cccc2cccnc12 | -11.2
37 | N/C(=N\OC(=O)c1ccc(Cl)cc1)c1ccn[nH]1 | 14.7
38 | O=C(NCCCN=C1NS(=O)(=O)c2ccccc21)c1ccc(S(=O)(=O)N2CCOCC2)cc1 | 4.24
39 | CC(C)C(=O)c1cn(CC(=O)O)c2ccccc12 | 8.27
40 | NC(=O)COC(=O)c1cccc(S(=O)(=O)N2CCN(c3ccccc3)CC2)c1 | 12.7
41 | O=C(NCCc1ccccc1)c1ccccc1Cl | 3.33
42 | Cc1ccc(S(=O)(=O)N/N=C/c2cn(C)nc2C)cc1 | -2.68
43 | CC(OC(=O)c1cccc(-n2cnnn2)c1)C(=O)Nc1ccccc1F (centres unmarked) | -11.5
44 | O=C(NC(NC(=S)Nc1c(Cl)cc(Cl)cc1Cl)C(Cl)(Cl)Cl)OCc1ccccc1 (centres unmarked) | 2.82
45 | CCOC(=O)N1CCN(C(=O)c2ccc3c(=O)n(-c4ccc(OC)cc4OC)c(=S)[nH]c3c2)CC1 | 8.51
46 | CC(=O)c1c2c3c(cccc3n(C)c1=O)C(=O)c1ccccc1-2 | -1.1

Row | Compound | hERG current change (%, negative = inhibition) at 10uM [%]
47 | Cl.OCCNc1nc(Nc2ccc(Br)cc2)nc2ccccc12 | -36.3
48 | COc1cc(CN(C(=S)NCC(=O)NC2CC2)C2CCCC2)cc(OC)c1OC | -1.45
49 | CC(=O)Nc1ncc(Cc2cccc(Cl)c2Cl)s1 | 15.8
50 | Cc1ccc(-c2nn(C)c(=O)c3ccccc23)cc1CN1CCCCC1 | -15
51 | O=C(CSc1nnnn1Cc1ccccc1)NCCc1ccccc1 | 1.1
52 | O=C(NCSc1ccnc(SCNC(=O)c2ccccc2)n1)c1ccccc1 | -28
53 | O=C(NC1CCCCCC1)C1c2ccccc2C(=O)N1C1CC1 (centres unmarked) | 10.3
54 | C=CCNC(=O)Cn1c(=O)c2c(ncn2CCC(C)C)n(Cc2ccccc2)c1=O | -1.69
55 | COc1ccc(OC)c(-c2nc(C(N)=O)c3[nH]c(=O)n(-c4ccc(F)cc4)c3n2)c1 | -1.45
56 | O=C(Nc1ccccc1F)c1cc(S(=O)(=O)N2CCCCC2)cs1 | -0.745
57 | CC(=O)Nc1cccc(NS(=O)(=O)Cc2ccc(Cl)cc2)c1 | 6.35
58 | CCCCN(CC)S(=O)(=O)N1CCC(C(=O)NCc2ccc(F)cc2)CC1 | -6.81
59 | CCOCC(=O)Nc1cccc(C(=O)OCC)c1 | -8.5
60 | COc1cccc(CNn2cn[nH]c2=S)c1OCc1ccccc1 | -3.37
61 | COc1ccccc1CC(=O)N1CCN(c2ccc(F)cc2)CC1 | -11.1
62 | CCOc1ccc(CCN2CN(C3CCCCC3)CNC2=S)cc1OCC | -8.05
63 | COc1ccc(OC)c(C2=NOC(C(=O)Nc3cc(C)on3)C2)c1 (centres unmarked) | 17.2
64 | CN1CCN(S(=O)(=O)c2ccc(Sc3nc4ccccc4[nH]3)c3nsnc23)CC1 | -1.53
65 | Cc1cccc(NC2=NC(C)(C)N=C(N)N2)c1C | 16.5
66 | Cc1cc(C)nc(N2C(=O)CC(Cc3ccc(Cl)cc3)C2=O)n1 (centres unmarked) | 7.04
67 | Nn1c(SCC(=O)NC2CCS(=O)(=O)C2)nnc1-c1cccs1 (centres unmarked) | 16.7
68 | Cc1ccc2c(c1)Oc1ccccc1C=C2C(=O)O | 8.5
69 | Cc1ccc(-c2csc(N3CCC(C(N)=O)CC3)n2)cc1 | 20.2

Row | Compound | hERG current change (%, negative = inhibition) at 10uM [%]
70 | NS(=O)(=O)c1ccc(N2CCOCC2)c(C(=O)NCCCSc2ccccc2)c1 | -35.1
71 | COC(=O)CSc1nc(NC#N)nc(NC(C)(C)C)n1 | 9.11
72 | NC(=S)N/N=C/c1coc2ccc(Br)cc2c1=O | 25.9
73 | Nc1nc(Cl)cc(Sc2ccc3ccccc3c2)n1 | 14.1
74 | O=C(COc1ccc2c(c1)CCC2)NCc1cccc(Cl)c1 | 0.911
75 | COc1cccc(-c2c(NC(=O)c3ccco3)oc3ccccc3c2=O)c1 | 6.14
76 | COc1cc(OC)c(OC)cc1/C=N/n1c(-c2n[nH]c3c2CCC3)n[nH]c1=S | 19.6
77 | O=C(NCc1cccnc1)c1cnc2n(c1=O)CCS2 | 1.27
78 | COc1ccc(C)cc1Nc1n[n+](-c2ccccc2)c(-c2ccc(OC)c(OC)c2OC)s1.[Cl-] | -71.8
79 | CC(C)(CC(=O)O)CC(=O)N1CCCN(c2nccc(C(F)(F)F)n2)CC1 | 17.8
80 | Cc1ccc(N2C(=O)SC(Cc3ccccc3)C2=O)cc1 (centres unmarked) | 13.7
81 | Cn1nnnc1SCC(=O)NNC(=O)c1ccc(Cl)cc1 | 7.44
82 | N#Cc1c(Cl)nc(SCc2ccccc2)nc1-c1ccccc1 | 8.45
83 | CC(=O)NNC(=O)N1Cc2ccccc2Oc2ccc(Cl)cc21 | 7.95
84 | CN1CCN(c2nc(-c3cccs3)nc3ccccc23)CC1 | -73.9
85 | c1cc2cc(-c3c(-c4ccc5c(c4)OCO5)noc3-c3ccsc3)ccc2[nH]1 | 19.4
86 | Cc1ccc2cc(CN(c3ccc(C)c(C)c3)S(C)(=O)=O)c(=O)[nH]c2c1 | 26.7
87 | COc1ccc(C(C)=O)cc1CSCC(=O)O | 24.8
88 | COc1ccc(CCC(=O)Nc2cc3c4c(c2)CCC(=O)N4CCC3)cc1 | -10.3
89 | CCSc1nnc(N2C(=O)CC(c3ccsc3)C3=C2CC(C)(C)CC3=O)s1 (centres unmarked) | -6.24
